Test results reported in the supplement of paper PMC8728848.
The other results are listed elsewhere or left out.

How the values were obtained:
Test in all cases: glycan array binding signal (z-score within array); higher = stronger binding
Conditions in all cases: glycan notation: IUPAC condensed, linker removed
[1] = target: Fuc(a1-2)Gal
Outline: (§1)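 Glycan array data came from 3228 arrays in the Consortium for Functional Glycomics database, and only arrays with an available protein sequence were kept. Glycan names were put into IUPAC-condensed notation, and columns mapping to the same glycan were averaged. The binding signal is a within-array Z-score, averaged across arrays of one protein sequence run at different concentrations or buffers and across linkers. A negative Z-score can be read as non-binding.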

[2] = target: Fuc(a1-2)Gal(b1-3)GalNAc
Outline: as §1

[3] = target: Fuc(a1-2)Gal(b1-3)GalNAc(a1-3)[Fuc(a1-2)]Gal(b1-4)Glc
Outline: as §1

[4] = target: Fuc(a1-2)Gal(b1-3)GalNAc(a1-3)[Fuc(a1-2)]Gal(b1-4)GlcNAc
Outline: as §1

[5] = target: Fuc(a1-2)Gal(b1-3)GalNAc(b1-3)Gal
Outline: as §1

[6] = target: Fuc(a1-2)Gal(b1-3)GalNAc(b1-3)Gal(a1-4)Gal(b1-4)Glc
Outline: as §1

[7] = target: Fuc(a1-2)Gal(b1-3)GalNAc(b1-4)[Neu5Ac(a2-3)]Gal(b1-4)Glc
Outline: as §1

[8] = target: Fuc(a1-2)Gal(b1-3)GlcNAc
Outline: as §1

[9] = target: Fuc(a1-2)Gal(b1-3)GlcNAc(b1-2)Man(a1-3)[Fuc(a1-2)Gal(b1-3)GlcNAc(b1-2)Man(a1-6)]Man(b1-4)GlcNAc(b1-4)GlcNAc
Outline: as §1

[10] = target: Fuc(a1-2)Gal(b1-3)GlcNAc(b1-2)Man(a1-3)[Fuc(a1-2)Gal(b1-3)GlcNAc(b1-2)Man(a1-6)]Man(b1-4)GlcNAc(b1-4)[Fuc(a1-6)]GlcNAc
Outline: as §1

[11] = target: Fuc(a1-2)Gal(b1-3)GlcNAc(b1-3)Gal(b1-4)Glc
Outline: as §1

[12] = target: Fuc(a1-2)Gal(b1-3)GlcNAc(b1-3)GalNAc
Outline: as §1

[13] = target: Fuc(a1-2)Gal(b1-3)GlcNAc(b1-3)[Fuc(a1-2)Gal(b1-3)GlcNAc(b1-6)]GalNAc
Outline: as §1

[14] = target: Fuc(a1-2)Gal(b1-3)GlcNAc(b1-3)[Gal(b1-4)GlcNAc(b1-6)]Gal(b1-4)Glc
Outline: as §1

[15] = target: Fuc(a1-2)Gal(b1-3)GlcNAc(b1-3)[Neu5Ac(a2-6)Gal(b1-4)GlcNAc(b1-6)]Gal(b1-4)Glc
Outline: as §1

[16] = target: Fuc(a1-2)Gal(b1-3)GlcNAc6S
Outline: as §1

[17] = target: Fuc(a1-2)Gal(b1-3)[Fuc(a1-4)]GlcNAc
Outline: as §1

[18] = target: Fuc(a1-2)Gal(b1-3)[Fuc(a1-4)]GlcNAc(b1-2)Man(a1-3)[Fuc(a1-2)Gal(b1-3)[Fuc(a1-4)]GlcNAc(b1-2)Man(a1-3)]Man(b1-4)GlcNAc(b1-4)GlcNAc
Outline: as §1

[19] = target: Fuc(a1-2)Gal(b1-3)[Fuc(a1-4)]GlcNAc(b1-2)Man(a1-3)[Fuc(a1-2)Gal(b1-3)[Fuc(a1-4)]GlcNAc(b1-2)Man(a1-6)]Man(b1-4)GlcNAc(b1-4)[Fuc(a1-6)]GlcNAc(b1-4)[Fuc(a1-6)]GlcNAc
Outline: as §1

[20] = target: Fuc(a1-2)Gal(b1-3)[Fuc(a1-4)]GlcNAc(b1-3)[Fuc(a1-3)[Gal(b1-4)]GlcNAc(b1-6)]Gal(b1-4)Glc
Outline: as §1

[21] = target: Fuc(a1-2)Gal(b1-3)[Fuc(a1-4)]GlcNAc(b1-3)[Gal(b1-4)GlcNAc(b1-6)]Gal(b1-4)Glc
Outline: as §1

[22] = target: Fuc(a1-2)Gal(b1-4)Fuc(a1-3)]GlcNAc(b1-2)Man(a1-3)[Fuc(a1-2)Gal(b1-4)[Fuc(a1-3)]GlcNAc(b1-2)Man(a1-6)]Man(b1-4)GlcNAc(b1-4)GlcNAc
Outline: as §1

[23] = target: Fuc(a1-2)Gal(b1-4)Glc
Outline: as §1

[24] = target: Fuc(a1-2)Gal(b1-4)Glc6S
Outline: as §1

[25] = target: Fuc(a1-2)Gal(b1-4)GlcNAc
Outline: as §1

[26] = target: Fuc(a1-2)Gal(b1-4)GlcNAc(b1-2)Man
Outline: as §1

[27] = target: Fuc(a1-2)Gal(b1-4)GlcNAc(b1-2)Man(a1-3)[Fuc(a1-2)Gal(b1-4)GlcNAc(b1-2)Man(a1-6)]Man(b1-4)GlcNAc(b1-4)GlcNAc
Outline: as §1

[28] = target: Fuc(a1-2)Gal(b1-4)GlcNAc(b1-2)Man(a1-3)[Fuc(a1-2)Gal(b1-4)GlcNAc(b1-2)Man(a1-6)]Man(b1-4)GlcNAc(b1-4)[Fuc(a1-6)]GlcNAc
Outline: as §1

[29] = target: Fuc(a1-2)Gal(b1-4)GlcNAc(b1-2)[Fuc(a1-2)Gal(b1-4)GlcNAc(b1-4)]Man(a1-3)[Fuc(a1-2)Gal(b1-4)GlcNAc(b1-2)Man(a1-6)]Man(b1-4)GlcNAc(b1-4)GlcNAc
Outline: as §1

[30] = target: Fuc(a1-2)Gal(b1-4)GlcNAc(b1-3)Gal(b1-4)GlcNAc
Outline: as §1

[31] = target: Fuc(a1-2)Gal(b1-4)GlcNAc(b1-3)Gal(b1-4)GlcNAc(b1-2)Man(a1-3)[Fuc(a1-2)Gal(b1-4)GlcNAc(b1-3)Gal(b1-4)GlcNAc(b1-2)Man(a1-6)]Man(b1-4)GlcNAc(b1-4)GlcNAc
Outline: as §1

[32] = target: Fuc(a1-2)Gal(b1-4)GlcNAc(b1-3)Gal(b1-4)GlcNAc(b1-3)Gal(b1-4)GlcNAc
Outline: as §1

[33] = target: Fuc(a1-2)Gal(b1-4)GlcNAc(b1-3)GalNAc
Outline: as §1

[34] = target: Fuc(a1-2)Gal(b1-4)GlcNAc(b1-3)[Fuc(a1-2)Gal(b1-4)GlcNAc(b1-6)]GalNAc
Outline: as §1

[35] = target: Fuc(a1-2)Gal(b1-4)GlcNAc(b1-3)[Fuc(a1-3)[Gal(b1-4)]GlcNAc(b1-6)]Gal(b1-4)Glc
Outline: as §1

[36] = target: Fuc(a1-2)Gal(b1-4)GlcNAc(b1-6)GalNAc
Outline: as §1

[37] = target: Fuc(a1-2)Gal(b1-4)GlcNAc6S
Outline: as §1

[38] = target: Fuc(a1-2)Gal(b1-4)[Fuc(a1-3)]GlcNAc
Outline: as §1

[39] = target: Fuc(a1-2)Gal(b1-4)[Fuc(a1-3)]GlcNAc(b1-2)Man(a1-3)[Fuc(a1-2)Gal(b1-4)[Fuc(a1-3)]GlcNAc(b1-2)Man(a1-6)]Man(b1-4)GlcNAc(b1-4)[Fuc(a1-6)]GlcNAc
Outline: as §1

[40] = target: Fuc(a1-2)Gal(b1-4)[Fuc(a1-3)]GlcNAc(b1-2)[Fuc(a1-2)Gal(b1-4)[Fuc(a1-3)]GlcNAc(b1-4)]Man(a1-3)[Fuc(a1-2)Gal(b1-4)[Fuc(a1-3)]GlcNAc(b1-2)Man(a1-6)]Man(b1-4)GlcNAc(b1-4)GlcNAc
Outline: as §1

[41] = target: Fuc(a1-2)Gal(b1-4)[Fuc(a1-3)]GlcNAc(b1-3)Gal(b1-4)[Fuc(a1-3)]GlcNAc
Outline: as §1

[42] = target: Fuc(a1-2)Gal(b1-4)[Fuc(a1-3)]GlcNAc(b1-3)Gal(b1-4)[Fuc(a1-3)]GlcNAc(b1-3)Gal(b1-4)[Fuc(a1-3)]GlcNAc
Outline: as §1

[43] = target: Fuc(a1-2)Gal(b1-4)[Fuc(a1-3)]GlcNAc(b1-3)GalNAc
Outline: as §1

[44] = target: Fuc(a1-2)Gal(b1-4)[Fuc(a1-3)]GlcNAc(b1-3)[Neu5Ac(a2-6)Gal(b1-4)GlcNAc(b1-6)]Gal(b1-4)Glc
Outline: as §1

[45] = target: Fuc(a1-2)Gal3S(b1-4)GlcNAc
Outline: as §1

[46] = target: Fuc(a1-2)Gal6S(b1-3)GlcNAc
Outline: as §1

[47] = target: Fuc(a1-2)Gal6S(b1-3)GlcNAc6S
Outline: as §1

[48] = target: Fuc(a1-2)Gal6S(b1-4)Glc
Outline: as §1

[49] = target: Fuc(a1-2)Gal6S(b1-4)Glc6S
Outline: as §1

[50] = target: Fuc(a1-2)[Gal(a1-3)]Gal
Outline: as §1

[51] = target: Fuc(a1-2)[Gal(a1-3)]Gal(b1-3)GalNAc
Outline: as §1

[52] = target: Fuc(a1-2)[Gal(a1-3)]Gal(b1-3)GalNAc(b1-3)Gal(a1-4)Gal(b1-4)Glc
Outline: as §1

[53] = target: Fuc(a1-2)[Gal(a1-3)]Gal(b1-3)GlcNAc
Outline: as §1

[54] = target: Fuc(a1-2)[Gal(a1-3)]Gal(b1-3)GlcNAc(b1-2)Man(a1-3)[Fuc(a1-2)[Gal(a1-3)]Gal(b1-3)GlcNAc(b1-2)Man(a1-6)]Man(b1-4)GlcNAc(b1-4)GlcNAc
Outline: as §1

[55] = target: Fuc(a1-2)[Gal(a1-3)]Gal(b1-3)GlcNAc(b1-2)Man(a1-3)[Fuc(a1-2)[Gal(a1-3)]Gal(b1-3)GlcNAc(b1-2)Man(a1-6)]Man(b1-4)GlcNAc(b1-4)[Fuc(a1-6)]GlcNAc
Outline: as §1

[56] = target: Fuc(a1-2)[Gal(a1-3)]Gal(b1-3)GlcNAc(b1-3)GalNAc
Outline: as §1

[57] = target: Fuc(a1-2)[Gal(a1-3)]Gal(b1-3)GlcNAc(b1-6)GalNAc
Outline: as §1

[58] = target: Fuc(a1-2)[Gal(a1-3)]Gal(b1-4)Glc
Outline: as §1

[59] = target: Fuc(a1-2)[Gal(a1-3)]Gal(b1-4)GlcNAc
Outline: as §1

[60] = target: Fuc(a1-2)[Gal(a1-3)]Gal(b1-4)GlcNAc(b1-2)Man
Outline: as §1

B1: CFEM-CGl (Candida glabrata), Q6FRS0 (protein)
chain: VLATPPACLLACVAQVSKQSSQCHTLNQVGCFCENENTAIKNCLDSICPNGNSDAAYTAFKNSCGDVGKAVASV
- glycan array binding signal (z-score) [1]: -0.215
- glycan array binding signal (z-score) [2]: -0.341
- glycan array binding signal (z-score) [3]: -0.334
- glycan array binding signal (z-score) [4]: -0.224
- glycan array binding signal (z-score) [5]: 0.607
- glycan array binding signal (z-score) [6]: -0.136
- glycan array binding signal (z-score) [7]: 0.519
- glycan array binding signal (z-score) [8]: -0.431
- glycan array binding signal (z-score) [9]: -0.488
- glycan array binding signal (z-score) [10]: -0.163
- glycan array binding signal (z-score) [11]: -0.493
- glycan array binding signal (z-score) [12]: -0.548
- glycan array binding signal (z-score) [13]: 0.578
- glycan array binding signal (z-score) [14]: -0.442
- glycan array binding signal (z-score) [15]: -0.042
- glycan array binding signal (z-score) [16]: -0.034
- glycan array binding signal (z-score) [17]: -0.551
- glycan array binding signal (z-score) [18]: 1.1
- glycan array binding signal (z-score) [19]: -0.092
- glycan array binding signal (z-score) [20]: -0.381
- glycan array binding signal (z-score) [21]: -0.356
- glycan array binding signal (z-score) [22]: 0.143
- glycan array binding signal (z-score) [23]: -0.13
- glycan array binding signal (z-score) [24]: -0.295
- glycan array binding signal (z-score) [25]: -0.393
- glycan array binding signal (z-score) [26]: -0.231
- glycan array binding signal (z-score) [27]: -0.245
- glycan array binding signal (z-score) [28]: -0.513
- glycan array binding signal (z-score) [29]: -0.312
- glycan array binding signal (z-score) [30]: -0.233
- glycan array binding signal (z-score) [31]: -0.168
- glycan array binding signal (z-score) [32]: -0.407
- glycan array binding signal (z-score) [33]: 8.8
- glycan array binding signal (z-score) [34]: -0.337
- glycan array binding signal (z-score) [35]: -0.397
- glycan array binding signal (z-score) [36]: 0.206
- glycan array binding signal (z-score) [37]: -0.397
- glycan array binding signal (z-score) [38]: -0.149
- glycan array binding signal (z-score) [39]: -0.064
- glycan array binding signal (z-score) [40]: 0.939
- glycan array binding signal (z-score) [41]: -0.324
- glycan array binding signal (z-score) [42]: -0.246
- glycan array binding signal (z-score) [43]: 1.42
- glycan array binding signal (z-score) [44]: -0.389
- glycan array binding signal (z-score) [45]: -0.179
- glycan array binding signal (z-score) [46]: -0.239
- glycan array binding signal (z-score) [47]: 0.54
- glycan array binding signal (z-score) [48]: -0.387
- glycan array binding signal (z-score) [49]: -0.073
- glycan array binding signal (z-score) [50]: -0.19
- glycan array binding signal (z-score) [51]: -0.235
- glycan array binding signal (z-score) [52]: -0.564
- glycan array binding signal (z-score) [53]: -0.304
- glycan array binding signal (z-score) [54]: -0.426
- glycan array binding signal (z-score) [55]: -0.457
- glycan array binding signal (z-score) [56]: -0.193
- glycan array binding signal (z-score) [57]: -0.471
- glycan array binding signal (z-score) [58]: -0.307
- glycan array binding signal (z-score) [59]: -0.145
- glycan array binding signal (z-score) [60]: -0.305
